Test results from the supplement of paper PMC11417369.
This is one part of the list.

test system: PfAP2-HC AP2 domain (GST-tagged); experiment: gcPBM binding intensity (ln(normalized median fluorescence intensity)); higher = stronger DNA binding
Procedure, shortened: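 An Agilent 4 × 180k array carrying primer-extended double-stranded 36-bp intergenic genomic probes and negative controls received GST-tagged P. falciparum DNA-binding domains expressed in E. coli, about 25 μg on average, for 1 h. The binding buffer contained 1× PBS, 1% milk, 0.2 mg/ml BSA, 0.5% salmon testes DNA and 0.03% Triton X-100. Binding intensity is the top Masliner-normalised natural-log median intensity across replicate spots of either probe orientation, read after Alexa488 anti-GST antibody staining and a 488 nm scan.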

Sequence	gcPBM binding intensity (ln)
TTATTTATCAAAAAATGTACAAAAATATATAAACAA [XGTACX_site940]	9.6
TTTGTCAACCAAAATTGTACAAATGTATTCCCAATA [XGTACX_site1350]	9.43
TTTTAAAAAAGAAAAAAAAAGGATCAGAGAAATATT [GTGCAC_negctrl_site79]	9.52
TTATATTTATTTAATGAACACACGATATATTATTTT [CACACA_site1601]	9.65
AAAAAAATTAATAATGTGCACTTTTTAGTATTTTTA [GTGCAC_site9744]	9.45
AAATGTTAATTAAATGCATGTACAAAAGGAGCGAAT [TGCATGCA_site942]	10.2
TTGTAGATATTTATATGTACGAATTTATAAATATAG [XGTACX_site3611]	9.3
CTCAAAAAATATGAACGTACAAAATAAGTAATGACA [XGTACX_site590]	9.71
TTTTTTTTTTTTTTTGCACACATTTTAATTATTTTT [CACACA_site341]	9.71
AAAAAAAAAAAAAAAGGTACACAAAACGGTATTATT [XGTACX_site7064]	9.63
ATACATATTAATATGTGTACACATTTTTATTTTTTT [XGTACX_site930]	9.88
AACTCATAGGAGTGTGCACACAAAAAATTAAAAAAA [CACACA_site8996]	10.3
TTTTTTTTTTTTGTCACACATATGGAATATATCTAT [CACACA_site5899]	9.62
ATGTCCTATATTAGTACACACATGAAAATATAAATA [CACACA_site7497]	9.66
ACAATTAATCAAACAAGTACAAAATATATCCCTATT [XGTACX_site6223]	9.68
TCCTATGATGATGATAGTACATATGAGTTCAAAAAA [XGTACX_site273]	9.44
TTATTGTTATTTGTTTGTACATAATATAATATATTA [XGTACX_site6477]	9.64
AACCATACACAAATAAACATAGACACAGATACCTCC [CACACA_negctrl_site598]	10.6
AATATAAAAAAAAACAAAAAAAAAATTTTGGTTCAC [CACACA_negctrl_site1290]	9.56
AATAATAAATAAATGTGTACTTAAAAATATTATATT [XGTACX_site3005]	9.72
TTGTATCATATATTATGTACATATTGATTTATTACC [XGTACX_site12]	9.59
CAAAGTATTATGATTACACACATGTGCTTTTTTCTT [CACACA_site163]	10
TTTTTAAAATATTTAACACACAATTATAATGCATAA [CACACA_site3932]	9.46

Sequence	gcPBM binding intensity (ln)
AGTAGTCTGGAGAAATGTACACAGTATCTGGTAGCT [XGTACX_site4871]	9.62
AATATGTGTATAGATAGTACACATGCTGATAATATA [XGTACX_site5941]	9.84
AAAATTTTGGAACGTGCACACATATGTAATATATAT [CACACA_site9004]	10.3
ATATTTTTTTTTTTATGTACTTATTTATAATTATTT [XGTACX_site5279]	10.1
AGCTTGTAACAGTTTACACACTAATATTTATAAATT [CACACA_site6024]	9.77
CTTATAAGAATACTAGTGCACATAATTTAACGAAAA	9.57
TTTTTTTTTTTTTTTTCACACATTGTACTTTTTTAT [CACACA_site5193]	9.54
TAAGTCATATAAATGTGTACATAAAAAAAAAAAATG [XGTACX_site1645]	9.66
ATCATTTGCATACGCACACACACATAAAAAGAAAAA [CACACA_site355]	10.9
TCTATCAAATTTGAAGGTACACATTTGAGATAATTA [XGTACX_site3797]	9.41
TACTTATTGTGATACTTATATTATTTTATGATTAAA [XGTACX_negctrl_site353]	9.48
TATATTTATTTATATACACACATAATAAAAAATATA [CACACA_site6527]	9.62
TATTAATGATAAAAAAGTACATTATTATATGATATT [XGTACX_site4235]	9.55
AAAAAAATAAATAAATGTACATATATAAAACATTGT [XGTACX_site2136]	9.94
ATATAATTATATTCCATACACACATATATTTAAAGG [CACACA_site2958]	9.77
AAACGAGAACATAATAAATACATAAATAAATAAATA [GTGCAC_negctrl_site433]	9.72
TTTTTTATTCCATAATATAATATGTTTTGAAATTTG [GTGCAC_negctrl_site440]	9.51
ATATACATATCAATGTAATATTATATACTTTTTTAG [CACACA_negctrl_site816]	9.5
TAGTTCTTTTAATTTAGTATTATACAATATTGGAAA [CACACA_negctrl_site521]	9.32
AATATATTAAATATTACACACATACATTTAGTGTAA [CACACA_site5145]	9.74
TATATATTAAACTTTGCACACATAATTTAACTACAA [CACACA_site3440]	9.84
TTATTTATGAAGTATACACACAATATATATATATAT [CACACA_site1248]	9.76
